# Test results from paper PMC4336329 (PLoS ONE, 2015).
# The campaign covered roughly 310,000 compounds. About 2,200 (0.71%) showed an effect of 50% or more. The effect is printed as a negative number. Some of the results follow.
# Molecular target: human ether-à-go-go-related gene (hERG) potassium channel (human, UniProt Q12809)
# Assay: primary screen, population patch clamp on CHO cells stably expressing hERG
# Chain of human ether-à-go-go-related gene (hERG) potassium channel (Q12809 whole entry, looked up): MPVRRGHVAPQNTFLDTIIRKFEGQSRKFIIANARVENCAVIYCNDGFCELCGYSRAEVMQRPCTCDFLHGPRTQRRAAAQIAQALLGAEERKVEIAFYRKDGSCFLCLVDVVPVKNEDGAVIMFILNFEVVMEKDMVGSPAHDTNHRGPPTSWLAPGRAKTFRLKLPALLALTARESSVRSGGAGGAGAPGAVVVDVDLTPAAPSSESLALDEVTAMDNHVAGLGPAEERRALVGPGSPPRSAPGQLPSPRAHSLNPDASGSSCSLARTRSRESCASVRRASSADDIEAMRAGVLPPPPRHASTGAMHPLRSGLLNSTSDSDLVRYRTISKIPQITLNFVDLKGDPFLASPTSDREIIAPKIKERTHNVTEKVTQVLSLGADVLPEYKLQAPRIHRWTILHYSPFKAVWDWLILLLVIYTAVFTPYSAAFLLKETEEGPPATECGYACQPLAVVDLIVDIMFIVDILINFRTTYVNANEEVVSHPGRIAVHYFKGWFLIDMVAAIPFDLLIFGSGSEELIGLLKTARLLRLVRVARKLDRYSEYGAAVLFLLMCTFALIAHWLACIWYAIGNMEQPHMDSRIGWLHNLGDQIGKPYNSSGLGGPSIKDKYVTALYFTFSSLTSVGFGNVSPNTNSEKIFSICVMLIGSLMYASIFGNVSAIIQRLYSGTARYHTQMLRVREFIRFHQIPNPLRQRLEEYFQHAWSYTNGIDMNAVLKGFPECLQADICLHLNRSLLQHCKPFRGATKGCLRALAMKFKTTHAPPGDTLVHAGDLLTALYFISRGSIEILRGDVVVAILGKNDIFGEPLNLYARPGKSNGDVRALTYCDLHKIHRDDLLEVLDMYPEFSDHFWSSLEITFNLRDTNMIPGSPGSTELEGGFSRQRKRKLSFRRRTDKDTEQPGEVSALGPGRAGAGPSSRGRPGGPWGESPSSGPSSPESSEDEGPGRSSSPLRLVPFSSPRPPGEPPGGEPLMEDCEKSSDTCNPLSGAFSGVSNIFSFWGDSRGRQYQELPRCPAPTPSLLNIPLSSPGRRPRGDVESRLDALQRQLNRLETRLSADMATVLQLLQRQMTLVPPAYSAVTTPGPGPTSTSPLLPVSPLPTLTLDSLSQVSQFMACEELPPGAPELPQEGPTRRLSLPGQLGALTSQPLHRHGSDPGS
row,Structure (SMILES),"hERG current change (%, negative = inhibition) at 1uM [%]"
1,Cc1cc(Cl)c(S(=O)(=O)N/N=C/c2ccc3c(c2)OCO3)c(Cl)c1,6.02
2,COc1ccc(C(=O)Nc2cc3c4c(c2)C(C)C(=O)N4CCC3)cc1 (stereo not drawn),0.815
3,COCCCNC(=O)c1ccc(CS(=O)(=O)Cc2cccc(C)c2)o1,8.08
4,O=C(CSc1ncn[nH]1)Nc1ncc(C(F)(F)F)cc1Cl,14.9
5,O=C(Nc1ccccc1O)c1cccc(NC(=O)c2ccco2)c1,9.5
6,CC(=O)Nc1ccc(C(=O)NNC(=O)c2cccs2)cc1,17.3
7,CC(=O)N1CCC(C(=O)NC2CCCc3c2cnn3-c2cc(F)cc(F)c2)CC1 (stereo not drawn),5.23
8,CSc1nnc(C(C)(C)C)c(=O)n1/N=C/c1ccc(Cl)cc1,2.61
9,O=C(c1ccco1)N1CCN(Cc2c(Cl)cccc2Cl)CC1,7.57
10,COc1ccc(-c2nn(-c3ccccc3)cc2/C=N/NC(=O)c2cccc(S(=O)(=O)Nc3ccccc3Cl)c2)cc1,-23.1
11,COc1ccc(C(CNC(=O)C(CC(C)C)NS(=O)(=O)c2ccc(C)cc2)N2CCOCC2)cc1 (stereo not drawn),10.2
12,CSCCC(C(=O)Nc1ccc2c(c1)OCO2)N1C(=O)c2ccccc2C1=O (stereo not drawn),4.06
13,Cc1c(C(=O)O)oc2ccc3c(c12)C(O)CC(C)(C)O3 (stereo not drawn),12.4
14,Cc1ccccc1N1CCN(C2CCCN(C(=O)c3cnsn3)C2)CC1 (stereo not drawn),-36
15,COc1cccc(-c2ccc(NC(=O)C3CCCN(Cc4cnc(C)s4)C3)cc2)c1 (stereo not drawn),13.2
16,CCCCNC(=S)N/N=C/c1ccc(C)s1,1.45
17,CC12CCC(C(=O)N(CCCCN3CCN(c4ccccn4)CC3)C1=O)C2(C)C (stereo not drawn),9.29
18,O=C(Cc1ccc(F)cc1)Nc1cccc2cccnc12,11.1
19,S=C(NC1CC1)N1CCc2ccccc2C1,4.36
20,COCCN1CCn2c(nc3cc(NC(=O)Cn4nc(C)c5ccccc5c4=O)ccc32)C1,12.9
21,COc1ccc(CCN2C(=O)CC(C(N)=O)SC2=Nc2ccccc2)cc1OC (stereo not drawn),0.0534
22,Cl.O=C(/C=C/c1cn(-c2ccccc2)nc1-c1ccc2c(c1)OCCO2)NCCCN1CCOCC1,4.34
23,Cc1cc(OCC(=O)N2CCC(C(=O)NCC(C)C)CC2)c2c3c(c(=O)oc2c1)CCCC3,7.79
24,CCOC(=O)c1sc(NC(=O)/C=C/c2ccc(F)cc2)nc1C,7.41
25,Cc1cc(NC(=O)CCCN2C(=O)/C(=C\c3cccs3)SC2=S)no1,17.4
26,Cn1c2ccccc2c2cc(/C=N/NC(=O)c3cc(O)cc(O)c3)ccc21,15
27,COc1ccc(-n2c(SCc3ccc([N+](=O)[O-])cc3)nnc2-c2ccccc2)cc1,-6.19

row,Structure (SMILES),"hERG current change (%, negative = inhibition) at 1uM [%]"
1,CC1CCC(NC(=O)CNC(=S)N2CC3CC(C2)c2cccc(=O)n2C3)CC1 (stereo not drawn),11.6
2,O=C(NCC(=O)N(c1cccc(F)c1)C(C(=O)NC1CCCC1)c1cccnc1)c1cccs1 (stereo not drawn),5.16
3,CCOC(=O)c1cc2c(=O)n3ccccc3nc2n(CCCOC)c1=NC(=O)c1cccnc1,-18.4
4,CCOc1ccc(NC(=O)C(C)NS(=O)(=O)c2ccc(NC(C)=O)cc2)cc1 (stereo not drawn),15.8
5,Cc1noc(-c2ccccc2OC(=O)c2ccccc2)n1,6.26
6,Cn1c(=O)c2c(ncn2CC(O)CO)n(C)c1=O (stereo not drawn),6.11
7,Cc1cccc(C(=O)N[C@H](C(=O)Nc2cc(S(=O)(=O)N3CCCCC3)ccc2C)C(C)C)c1,14.5
8,COc1ccccc1N1CCN(C(=O)C2CCCN(S(=O)(=O)c3ccc4c(c3)CCCN4C(C)=O)C2)CC1 (stereo not drawn),14.1
9,CC(=O)c1cnc2c(-c3ccccc3)c(C)nn2c1C,13.9
10,COC(=O)c1ccccc1N=Cc1c(O)[nH]c(=S)[nH]c1=O,12.9
11,COc1ccc([C@H]2CC(=O)C=C(c3cccc(Cl)c3)C2)cc1,11.8
12,Cc1ccc(N/N=C/c2c(O)n(-c3ccccc3)c(=O)[nH]c2=O)cc1,14.6
13,Cc1ccc(OCc2cc(C(=O)N(C)Cc3cc(C4CC4)n[nH]3)no2)cc1C,13.4
14,Cc1cc(Cl)ccc1NC(=S)NCc1ccc(S(N)(=O)=O)cc1,9.94
15,CCOc1ncccc1C(=O)OCC(=O)c1ccc(C)c(C)c1,11.4
16,Cc1ccc(S(=O)(=O)N(NC2=NS(=O)(=O)c3ccccc32)C(=O)c2ccccc2)cc1,-10.8
17,Cn1c(C(=O)OC(C(=O)NC2CCCCC2)c2ccccn2)cc2sccc21 (stereo not drawn),11.5
18,Cc1cccc(C)c1N1CCN(S(=O)(=O)N(C)C)CC1,12
19,O=C(C1=NN[C@@H]2C(=O)N(c3ccccc3C(F)(F)F)C(=O)[C@H]12)c1cnccn1,5.43
20,O=c1[nH]c2ccc(S(=O)(=O)N3CCN(C4CCCCC4)CC3)cc2[nH]c1=O,-2.82
21,CCOC(=O)N1CCN(C(=O)CCc2ccc(S(=O)(=O)NCCc3ccccc3)cc2)CC1,-4.75
22,COc1cccc(CN(C)C(=O)c2cccnc2SC)c1OC,7.4
23,CCC(C)(C)n1nnnc1CN1CCC(c2nc3ccc(C)cc3[nH]2)CC1,-25.7
24,Cc1cccc(C(=O)N/N=C/C(C)Cc2ccc3c(c2)OCO3)c1 (stereo not drawn),3.08
25,CC1CCC(NC(=O)Cn2c3c(c(-c4ccccc4Cl)cc2=O)CCC3)CC1 (stereo not drawn),9.99
26,CCOc1ccccc1N1CC(C(=O)Nc2ccccc2CC)CC1=O (stereo not drawn),7.8
27,O=C(Nc1c2c(nn1-c1cccc(Cl)c1)CS(=O)C2)c1ccc2c(c1)OCO2 (stereo not drawn),5.39
